Laboratory results published in US20250368738A1 (PHILOGEN S P A, published 2025).

Target: T1, human CD28-ECD (extracellular domain) recombinant fragment containing a C-terminal Avi tag, His6 tag and Fc … (human, site specifically biotinylated using BirA (Avi tag) in the ELISA of Example 2.1)
T1 construct: also called CD28-Fc; CD28-Fc fusion protein
Experiment: titration ELISA, biotinylated CD28-ECD fusion protein on streptavidin wells, anti-myc detection

B1: AE2P antibody in single chain Fv (scFv) format (scFv)
scFv: [omitted - about 100 residues]RYIAFDYWGQGTLVTVSSGGGGSGGGGSGGGGDIQMTQSPSSLSASVGDRVTITCRASQSISSYLNWYQQKPGKAPKLLIYAASSLQSGVPSRFSGSGSGTDFTLTISSLQPEDFATYYCQQGGMPPDTFGQGTKVEIK
notes: The tested scFv was detected through a myc tag; also called AE2P scFv; scFv (AE2P)
- EC50: ~0.031 µM
